This note sets out measurements from PMC4336329 (PLoS ONE, 2015).

Each structure is given as a SMILES string. Screen size: about 310,000 compounds; about 2,200 (0.71%) showed an effect of 50% or more. The effect is printed as a negative number. The list shows a part of the results.

Sequence of human ether-à-go-go-related gene (hERG) potassium channel (Q12809 whole entry, looked up): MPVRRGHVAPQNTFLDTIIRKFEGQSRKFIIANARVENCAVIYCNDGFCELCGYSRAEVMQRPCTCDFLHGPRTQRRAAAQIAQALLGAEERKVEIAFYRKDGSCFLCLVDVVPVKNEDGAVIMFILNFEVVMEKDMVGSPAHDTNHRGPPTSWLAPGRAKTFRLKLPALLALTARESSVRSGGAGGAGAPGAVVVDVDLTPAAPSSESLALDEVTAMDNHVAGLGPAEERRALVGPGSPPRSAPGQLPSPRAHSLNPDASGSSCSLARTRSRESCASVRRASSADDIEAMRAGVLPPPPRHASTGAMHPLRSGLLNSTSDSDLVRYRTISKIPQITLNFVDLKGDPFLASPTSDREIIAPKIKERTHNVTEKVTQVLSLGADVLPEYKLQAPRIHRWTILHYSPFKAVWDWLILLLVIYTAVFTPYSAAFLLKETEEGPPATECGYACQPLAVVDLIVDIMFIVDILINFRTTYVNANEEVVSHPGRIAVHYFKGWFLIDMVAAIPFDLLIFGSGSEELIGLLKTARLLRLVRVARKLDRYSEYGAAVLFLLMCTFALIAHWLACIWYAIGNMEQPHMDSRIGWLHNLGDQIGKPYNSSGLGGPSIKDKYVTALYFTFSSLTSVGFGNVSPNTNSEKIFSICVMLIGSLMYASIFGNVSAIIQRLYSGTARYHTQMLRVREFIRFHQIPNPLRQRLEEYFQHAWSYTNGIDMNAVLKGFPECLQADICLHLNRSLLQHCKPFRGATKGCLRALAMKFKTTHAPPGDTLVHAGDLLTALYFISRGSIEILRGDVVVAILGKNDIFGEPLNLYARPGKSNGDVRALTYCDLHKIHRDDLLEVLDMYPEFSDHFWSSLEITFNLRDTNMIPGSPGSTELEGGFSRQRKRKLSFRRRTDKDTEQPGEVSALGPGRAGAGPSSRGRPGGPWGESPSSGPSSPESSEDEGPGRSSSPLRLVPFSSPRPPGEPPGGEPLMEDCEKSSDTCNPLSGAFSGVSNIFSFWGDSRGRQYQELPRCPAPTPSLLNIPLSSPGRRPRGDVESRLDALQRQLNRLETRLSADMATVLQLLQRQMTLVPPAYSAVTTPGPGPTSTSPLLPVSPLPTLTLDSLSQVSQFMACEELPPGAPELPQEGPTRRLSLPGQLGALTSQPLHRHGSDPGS

This experiment addresses human ether-à-go-go-related gene (hERG) potassium channel (human, UniProt Q12809). In words: primary screen, population patch clamp on CHO cells stably expressing hERG.
As for `COC(=O)C(Cc1cnc(Cl)s1)(C(=O)OC)c1ccc([N+](=O)[O-])cc1[N+](=O)[O-]`, the “hERG current change (%, negative = inhibition) at 1uM” value was -12.3%.
As for `O=C(Nc1cccc(Cl)c1)c1csc(-c2ccccc2)n1`, the figure is 16.3%; as for `CC(C)CC(=O)NC(=S)Nc1ccc(S(=O)(=O)Nc2nccs2)cc1`, 14.8%.
As for `COc1ccc2ccccc2c1/C=N\NC(=O)c1cccnc1`, the “hERG current change (%, negative = inhibition) at 1uM” value amounted to 9.21%.
With `CC(Sc1nnc(Cc2cccs2)n1C1CCCCC1)C(N)=O` (centres unmarked) the figure was 8.88%.
With `N#C/C(=C(/O)COC(=O)c1cccnc1Cl)c1nc2ccccc2[nH]1`, the “hERG current change (%, negative = inhibition) at 1uM” value is given as 17.7%.
As for `CC(C)CNC(=O)C1c2ccccc2Oc2ccccc21`, the figure is 1.95%.
Regarding `CN(C)C(=O)Oc1ccc(-c2nnco2)cc1`, the “hERG current change (%, negative = inhibition) at 1uM” value is on record as 8.91%.
As for `Cc1cccc(NC(=O)NCC(F)(F)F)n1`, the figure is 10.2%; as for `O=C(Nc1ccccc1C(=O)N1CCOCC1)C1CC(=O)N(C2CCCC2)C1` (centres unmarked), 12.4%.
With `CCC[N+]12CCC(CC1)C(=C(c1ccccc1)c1ccccc1)C2.[Br-]` the figure was 3.15%; with `COc1ccc(CN(C(=O)c2ccco2)c2ccc(C)cc2)cc1OC`, 10.6%; with `COC(=O)C1CC(O)CN1C(=O)Nc1cccc(C(F)(F)F)c1` (centres unmarked), 13.6%.
As for `CC(C)N(CCn1cnc2c([nH]c3ccccc32)c1=O)C(C)C`, the figure is -33.7%; as for `CCN1CCN(c2ccc(NC(=O)c3cnccn3)cc2)CC1`, 2.63%.
Turning to `COc1ccc(C2/C=C\CN(C(=O)Nc3ccc(C(F)(F)F)cc3)CC(=O)N2Cc2ccc(F)cc2)cc1` (centres unmarked), the “hERG current change (%, negative = inhibition) at 1uM” value amounted to 9.63%.
As for `CCn1c(CSc2nc(C)cc(C)n2)nnc1SCC(=O)Nc1ccccc1`, the figure is 3.49%; as for `CC(=O)c1cccc(NC(=O)CN2C(=O)NC3(CCCCCCC3)C2=O)c1`, -1.52%.
For `CC(=O)C1=C(c2ccccc2)NC(=O)NC1c1ccccc1OCC(=O)Nc1ccccc1` (centres unmarked), the “hERG current change (%, negative = inhibition) at 1uM” value is 4.54%.
Take `Cn1c(COc2ccccc2)nc2ccccc21`: the “hERG current change (%, negative = inhibition) at 1uM” value came to 13.1%.
As for `COc1ccc(-c2cc(C(=O)Nc3c(F)cc(F)cc3Br)no2)cc1`, the figure is 10.8%; as for `O=C(COc1ccc2ccccc2c1)Nc1ccc(Br)cc1C(=O)O`, 0.611%.
With `Cc1ccc(C)c(NC(=S)N=Nc2c(O)n(C)c3ccc(S(=O)(=O)N4CCOCC4)cc23)c1`, the “hERG current change (%, negative = inhibition) at 1uM” value is listed as 13.2%.
Consider `CN(CC(=O)Nc1cccc(F)c1)C(=O)CNS(=O)(=O)c1ccc(N(C)C)c([N+](=O)[O-])c1`, for which the “hERG current change (%, negative = inhibition) at 1uM” value was found to be 9.49%.
With `COC(=O)c1ccc2c(=O)n(CC3CCCO3)c(SCC(=O)Nc3ccccc3OC)nc2c1` (centres unmarked) the figure was -1.64%; with `COc1ccc(S(=O)(=O)CC2(O)CCN(C(=O)C(C)(C)C)CC2)cc1`, 12.5%.
With `C=CCc1cc(C)ccc1OCCOCCC(C(=O)OCC)C(=O)OCC` the figure was 6.16%; with `O=C(COc1ccc(Cl)cc1)OCC(=O)c1ccc[nH]1`, 8.73%.
As for `COC(=O)c1cc(NC(=O)Cc2ccc(OC)cc2)cc(C(=O)OC)c1`, the figure is 14.7%.
`CN(C)CCCNC1=CC(=O)CC(c2ccccc2)C1` (centres unmarked): the “hERG current change (%, negative = inhibition) at 1uM” value was -1.56%.
Regarding `COc1cccc(CC(=O)N2CCCC(CO)(Cc3ccc(F)cc3F)C2)c1` (centres unmarked), the “hERG current change (%, negative = inhibition) at 1uM” value amounted to 12.4%.
Take `CCOC(=O)C1CCN(C(=O)CN(C)S(=O)(=O)c2cc(C)ccc2OC)CC1`: the “hERG current change (%, negative = inhibition) at 1uM” value is listed as -2.85%.
Regarding `CC(C)Cc1nnc(NC(=O)CSc2nc(N)cc(=O)[nH]2)s1`, the “hERG current change (%, negative = inhibition) at 1uM” value was 5.82%.
With `COc1cc2c(c(OC)c1OC)-c1c(cc(OC)c(OC)c1OC)C[C@](C)(O)[C@@H](C)C2` the figure was -58.4%; with `Cc1c(C(=O)N2CCN(CCc3ccccn3)CC2)oc2ccc(F)cc12`, -61.3%; with `NS(=O)(=O)c1ccc(S(=O)(=O)N2CCN(C3CCCC3)CC2)cc1`, 14.3%.
As to `COc1ccc(/C=C/c2c(-c3ccc(OC)cc3)oc3cccnc23)cc1`, the “hERG current change (%, negative = inhibition) at 1uM” value is 14.7%.
For the compound `Cc1ccc(C)c(NC(=O)CN(C)C(=O)c2cccc(S(=O)(=O)N(C)C)c2)c1`, the “hERG current change (%, negative = inhibition) at 1uM” value is given as -2.36%.
For the compound `CCN(CC)CCNC(=O)C(=O)Nc1cc2c3c(c1)CCN3C(=O)CC2`, the “hERG current change (%, negative = inhibition) at 1uM” value is given as 16.8%.
As for `NC(=O)C1CCN(CCC(=O)Nc2ccc(Br)cc2)CC1`, the figure is -16.2%; as for `CCN(CC)CCNC(=S)NC(=O)c1cn(-c2ccccc2)nc1-c1ccc(OC)cc1`, 4.93%; as for `COc1cc(OC)cc(-c2cc(N)n(S(=O)(=O)Cc3ccccc3)n2)c1`, 8.58%.
As for `O=C(C1=C[C@@H](c2ccc(C(F)(F)F)cc2)C[C@@H](OCCCCO)O1)N1CCOCC1`, the figure is 5.4%.
In the case of `Cc1c(NC(=O)CN2C(=O)NC(CCc3ccccc3)C2=O)c(=O)n(-c2ccccc2)n1C` (centres unmarked), the “hERG current change (%, negative = inhibition) at 1uM” value stood at 7.98%.
